# From PubChem BioAssay AID1671193 (National Center for Advancing Translational Sciences (NCATS), 2021)
# Hit rate of the full screen: of about 150,000 compounds, about 180 (0.12%) were called active. Inconclusive results, whose numbers are uncertain, are shown with a selection of clear calls. Calls come from the whole dose curve; as a rule, active = well fitted cell-killing curve with a large enough effect; inconclusive = small, poorly fitted or top-dose-only effect, or effect the other way; inactive = flat fitted curve, though single readings scatter. A potency beside an inconclusive call is a rough fit, not a confirmed value.
# Assay: GF-AFC viability counterscreen for inhibitors of alpha-synuclein gene (SNCA) expression; note: nearly all actives have a fitted effect of over 30% in size;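 for activity change, negative = cytotoxicity: 0% = DMSO-treated cells and -100% = medium-only wells without cells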
# Details: HEK-293-SNCA-luc viability, GF-AFC fluorescence, 24 h; activity change, negative = cytotoxicity: at 57.1 µM (top of the series) unless noted
# In short: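 Cytotoxicity counterscreen: after 24 h compound treatment of genome-edited SNCA-luciferase HEK-293 cells, live-cell protease substrate GF-AFC read by fluorescence after 30 min; activity scaled between DMSO (0%) and medium-only (-100%), curves Hill-fitted.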
# Potency is the fitted concentration of half-maximal effect; tags give direction and shape of the fitted curve.
SMILES,Potency,"activity change, negative = cytotoxicity"
COc1ccc(NC(=O)CN2C(=O)COc3ccc(C(=O)COc4cccc(F)c4)cc32)cc1,"inconclusive: 3.98 µM [cytotoxic, single point]",–
CC(=O)Nc1cccc(-c2cnc3n[nH]c(-c4sccc4C)c3n2)c1,"inconclusive: 63.1 µM [cytotoxic, single point]",–
COCC(=O)N1CCN(Cc2ccccc2-c2cccnc2)CC1,–,inactive: 6.8% [at 12.5 µM]
CCN(C(=O)C1CCC(CNS(=O)(=O)c2cccc3nsnc23)CC1)c1cccc(C)c1 (stereo unspecified),"inconclusive: 39.8 µM [cytotoxic, single point]",–
CCCn1c(=N)c(C(=O)NCc2cccnc2)cc2c(=O)n3cccc(C)c3nc21,"inconclusive: 22.4 µM [rising, partial curve]",–
O=C(Nc1ccnc(NC(=O)C2CC2)c1)c1c(Cl)cccc1Cl,"inconclusive: 33.6 µM [cytotoxic, single point]",–
CN(Cc1ccccc1)C(=O)C[C@@H]1CCNC[C@@H]1Cc1cc(-c2ccc(F)cc2)on1,inactive,–
COc1ccc(C(=O)NCC(c2ccc3c(c2)OCO3)N2CCOCC2)cc1 (stereo unspecified),"inconclusive: 14.1 µM [cytotoxic, partial curve, poor fit]",–
COc1ccccc1CNC[C@H]1Cn2cc(-c3ccc(C)cc3)nc2CO1,inactive,–
CC(C)C[C@@H]1N[C@H](C(=O)NCCN(C)C)Cc2cn(CC3CC3)c3cccc1c23,"inconclusive: 56.2 µM [cytotoxic, single point]",–
COc1ccc(C2=NN(S(C)(=O)=O)C(c3cn(-c4ccccc4)nc3-c3cccs3)C2)cc1 (stereo unspecified),inactive,–
Cc1cccc(-n2ncc(C(=O)N3CCc4ccccc4C3)c2C2CCN(C(=O)OC(C)(C)C)CC2)c1,"inconclusive: 7.08 µM [rising, partial curve, poor fit]",–
Clc1ccc(-c2cnc([C@@H]3COCCN3C3CCCCC3)[nH]2)s1,"inconclusive: 56.2 µM [cytotoxic, single point]",–
O=C(NC1(C(F)(F)F)NC(=O)N(CCc2ccccc2)C1=O)c1ccccc1Cl (stereo unspecified),"inconclusive: 14.1 µM [rising, partial curve, poor fit]",–
COc1ccc(-c2nc(C(C)C)nc3c2CCN(C(=O)C2CCCC2)CC3)cc1,"inconclusive: 17.8 µM [cytotoxic, single point]",–
O=C(Nc1cccc(F)c1)N1CC2(CCN(C(=O)c3cc(C(F)(F)F)cc(C(F)(F)F)c3)CC2)C1,"inconclusive: 39.8 µM [cytotoxic, single point]",–
Cc1ccc(-c2ccc3nnc(CNC(=O)c4cc(F)ccc4F)n3n2)cc1,inactive,–
COc1ccc(-c2cc(N3CCC(NC(=O)c4ccc(C#N)cc4)C3)n[nH]2)cc1 (stereo unspecified),"inconclusive: 10 µM [cytotoxic, partial curve, poor fit]",–
Cc1cccc(Nc2nc(-c3ccccc3)c3cc(C)ccc3n2)c1,"inconclusive: 31.6 µM [rising, single point]",–
O=C(CSc1nc(-c2ccccc2)[nH]c1-c1ccccc1)Nc1ccc2c(c1)OCO2,"inconclusive: 25.1 µM [cytotoxic, single point]",–
Fc1ccc(Nc2nc3nonc3nc2Nc2cccc(C(F)(F)F)c2)cc1,"inconclusive: 10 µM [cytotoxic, partial curve, poor fit]",–

SMILES,Potency,"activity change, negative = cytotoxicity"
CC(C)(C)C(=O)Nc1cc(-c2ccccn2)nn1-c1ccccc1,inactive,–
COc1cc(CNC(=O)CSCc2nc3cccnc3n2C2CCCCC2)cc(OC)c1OC,"inconclusive: 25.1 µM [cytotoxic, single point]",–
COCc1ccc2c(c1)c(OC(C)(C)C(=O)NC1CC1)nn2Cc1ccccc1,inactive,–
O=C(C=Cc1ccc(CN(CCO)CCc2c[nH]c3ccccc23)cc1)NO,"inconclusive: 0.607 µM [cytotoxic, full curve]",–
COc1ccc(NC(=O)Cn2c(=O)n(-c3ccccc3)c(=O)c3c4c(sc32)CCCC4)c(OC)c1,"inconclusive: 4.47 µM [cytotoxic, single point]",–
Cn1cc([C@@H](NC(=O)c2cccc3c2NCCC3)C2CC(O)C2)cn1 (stereo partly specified),"inconclusive: 2.24 µM [cytotoxic, full curve]",–
Cc1ccc(C(=O)c2cn(Cc3cccc(C)c3)c3nc(C)ccc3c2=O)cc1,"inconclusive: 12.6 µM [cytotoxic, partial curve]",–
CCC(=O)N1CCc2c(C(=O)Nc3ccc(N4CCOCC4)cc3)cccc21,inactive,–
COc1ccc2[nH]c(C(=O)N3CCCN(S(=O)(=O)c4ccccc4)CCC(=O)NCC3)cc2c1,inactive,–
Cc1ccccc1N(C)C1CN(C(=O)c2ccc3c(c2)OCO3)C1,"inconclusive: 11.2 µM [cytotoxic, partial curve, poor fit]",–
COc1ccccc1C(=O)N1CCC(Oc2ccc(C(N)=O)cn2)CC1,inactive,–
COc1cccc(N2CCN(C(=O)CCCn3c(=O)[nH]c4ccc(Br)cc4c3=O)CC2)c1,"inconclusive: 39.8 µM [cytotoxic, single point]",–
COC[C@@H]1CN(C(=O)CCc2c(C)noc2C)C[C@H]1c1ccncc1,"inconclusive: 6.31 µM [cytotoxic, single point]",–
COc1cccc2sc(NC(=O)c3ccc4c(c3)OCCN(C3CCC3)C4)nc12,"inconclusive: 56.2 µM [cytotoxic, single point]",–
COCCn1c2c([n+](Cc3cnccn3)c1C)C(=O)c1ccccc1C2=O,active: 0.0764 µM,–
Cc1ccc(CNC(=O)N2CCc3nc(-c4ccccc4)[nH]c3C2)cc1,inactive,–
COC(=O)[C@@H]1Cc2ncn(C)c2CN1C(=O)c1ccc(-c2ccccc2)cc1,inactive,–
COc1ccc2cc(OCC3(C(=O)O)CN(C(=O)c4ccc(F)cc4)C3)ccc2c1,"inconclusive: 33.6 µM [cytotoxic, single point]",–
CN1CCN(c2cc(N3CC[C@H](CO)[C@H](O)C3)nc(N)n2)CC1,inactive,–
Cc1cc(C)c(CNC(=O)c2cc(-c3cccnc3)cc3c2OCCN3C(C)C)c(=O)[nH]1,"inconclusive: 31.6 µM [cytotoxic, partial curve, poor fit]",–
